The campaign covered roughly 350,000 compounds. About 260 (0.074%) were called active. Inconclusive means that the source gave no clear call. Such entries were picked first, then a sample of the others. Calls come from the whole dose curve; as a rule, active = well fitted inhibition curve with a large enough effect; inconclusive = small, poorly fitted or top-dose-only effect; inactive = no such curve, though single readings can be large or run the other way. Potencies of inconclusive entries are doubtful fits and often do not repeat.
What follows are compounds tested against Ferritin light chain (Equus caballus) (UniProt P02791) (assay: qHTS Assay for Identification of Novel General Anesthetics). Details: apoferritin/1-aminoanthracene competitive binding, fluorescence; activity change, negative = displacement: at 77.5 µM (top of the series).
Procedure, shortened: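 In PBS, apoferritin at 10 uM is loaded with 1-AMA from a 50% saturated solution. After 10 min of compound exposure at ambient temperature, reduced 535 nm fluorescence indicates probe displacement.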
% is set by controls: 0 for no effect and ±100 for the full control effect; potency is the fitted concentration of half-maximal effect; tags give direction and shape of the fitted curve.
Note: nearly all actives have a fitted effect of over 20% in size.

Chain of UniProt P02791 (P02791 whole entry, looked up): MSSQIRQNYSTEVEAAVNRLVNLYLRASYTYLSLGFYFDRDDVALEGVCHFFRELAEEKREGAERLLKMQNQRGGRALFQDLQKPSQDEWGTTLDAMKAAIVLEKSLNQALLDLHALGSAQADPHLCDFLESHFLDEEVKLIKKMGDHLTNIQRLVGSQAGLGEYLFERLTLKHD

SMILES | Potency | activity change, negative = displacement
O=[N+]([O-])c1ccc(N2N=C(c3ccco3)CC2c2ccccc2)cc1 (stereo not given) | inconclusive: 22.4 µM [inhibitor, partial curve] | 
CCC(c1ccccc1)c1nc(-c2ccccn2)no1 (stereo not given) | inconclusive: 39.8 µM [inhibitor, partial curve] | 
O=C(c1cc(-c2ccc(O)cc2)on1)N1CCCc2ccccc21 | inconclusive: 39.8 µM [inhibitor, partial curve] | 
COCCNC(=O)COc1ncnc2scc(-c3ccc(F)cc3)c12 |  | inactive: -6.72%
Cc1csc(NC(=O)CCc2nc3ccccc3s2)n1 | inconclusive: 39.8 µM [inhibitor, single point] | 
CCCOc1ccc(-c2c(C(=O)N/N=C(\C)c3ccncc3)nnn2-c2nonc2N)cc1 | inconclusive: 25.1 µM [inhibitor, partial curve] | 
Oc1cc(OCc2ccccc2)ccc1-c1[nH]ncc1-c1ccccc1 | inconclusive: 44.7 µM [inhibitor, single point] | 
O=S(=O)(Nc1ccc2nc(-c3ccco3)[nH]c2c1)c1ccccc1 | inconclusive: 20 µM [inhibitor, partial curve] | 
COC(=O)Cc1ccc(Oc2ncc(C(F)(F)F)cc2Cl)cc1 | inconclusive: 28.2 µM [inhibitor, partial curve] | 
C[C@H](NC(=O)OC(C)(C)C)c1nnc(SCc2c(F)cccc2Cl)o1 | inconclusive: 31.6 µM [inhibitor, partial curve] | 
NC1=NC2(CCC(c3ccccc3)CC2)n2c(nc3ccccc32)N1 (stereo not given) | inconclusive: 22.4 µM [inhibitor, partial curve] | 
COC(=O)CCC(=O)OC1(C)C(=O)C2=COC(c3ccc(OC)cc3)=CC2=C(Br)C1=O (stereo not given) | inconclusive: 44.7 µM [inhibitor, single point] | 
O=[N+]([O-])c1ccccc1/C=N\N1CCN(Cc2ccccc2Cl)CC1 |  | inactive: -9.88%
O=[N+]([O-])c1c(NCCO)cc(Sc2nc3ccccc3s2)c2nonc12 | inconclusive: 17.8 µM [inhibitor, partial curve] | 
CCCN1C(=O)/C(=N\OCC(=O)NC23CC4CC(CC(C4)C2)C3)c2ccccc21 | inconclusive: 12.6 µM [inhibitor, partial curve] | 
Cc1ccccc1CSc1nc2n(n1)C(c1cccs1)C1=C(CCCC1=O)N2 (stereo not given) | inconclusive: 35.5 µM [inhibitor, partial curve] | 
O=C(CN1CCC(C(=O)c2ccc(Cl)cc2)CC1)Nc1ccc2c(c1)OCCO2 | inconclusive: 28.2 µM [inhibitor, partial curve] | 
Cc1ccc(Cl)cc1NC(=O)COC(=O)C1CC1 | inconclusive: 22.4 µM [inhibitor, partial curve] | 
CCOc1ccc(C(=O)N(Cc2sccc2C)C2CCS(=O)(=O)C2)cc1 (stereo not given) |  | inactive: 0.118%
O=C1CC(c2cccc(O)c2)c2c(nc(SCc3ccccc3F)[nH]c2=O)N1 (stereo not given) | inconclusive: 28.2 µM [inhibitor, partial curve] | 
O=C(NCCSc1c(-c2ccccc2)[nH]c2ccccc12)c1cc2ccccc2oc1=O |  | inactive: -3.77%
Cc1cc(OCCn2nc(C(=O)O)c3ccccc3c2=O)ccc1C(C)C | inconclusive: 17.8 µM [inhibitor, partial curve] | 

SMILES | Potency | activity change, negative = displacement
Cc1cccc(CCNS(=O)(=O)c2ccc(S(=O)(=O)NC3CCCC3)cc2)c1 | inconclusive: 14.1 µM [inhibitor, partial curve] | 
CCC1CN(C(=O)N2CCC(C(=O)Nc3ccccc3F)CC2)c2ccccc2O1 (stereo not given) | inconclusive: 31.6 µM [inhibitor, single point] | 
O=C(Cn1c(=O)n(-c2ccc(F)cc2)c(=O)c2sccc21)c1ccccc1 | inconclusive: 25.1 µM [inhibitor, partial curve] | 
CC(C)[C@H](NC(=O)c1ccco1)C(=O)OCC(=O)NC12CC3CC(CC(C3)C1)C2 | inconclusive: 35.5 µM [inhibitor, partial curve] | 
Cc1cccc2c(N=O)c(O)n(CCc3ccccc3)c12 | inconclusive: 14.1 µM [inhibitor, partial curve] | 
O=[N+]([O-])c1ccc(N2CCCC2)cc1N1CCCC1 | inconclusive: 50.1 µM [inhibitor, single point] | 
O=C(Nc1cccc(Cl)c1Cl)c1cc(S(=O)(=O)NCc2ccc3c(c2)OCO3)ccc1F |  | inactive: 0.283%
N#Cc1nc(COc2ccccc2Cl)oc1NCc1ccco1 | inconclusive: 35.5 µM [inhibitor, partial curve] | 
CN(Cc1ccc(F)cc1)C(=O)c1cccc(NS(=O)(=O)c2ccccc2)c1 | inconclusive: 28.2 µM [inhibitor, single point] | 
Cc1ccc(-c2csc3ncnc(-n4cnc5ccccc54)c23)cc1 |  | inactive: -12.5%
Cc1ccc(CN2CCCN(CC(=O)Nc3ccc(C)cc3C)S2(=O)=O)cc1 | inconclusive: 28.2 µM [inhibitor, partial curve] | 
CCN1/C(=C/C(C)=C/c2sc3ccccc3[n+]2CC)Sc2ccccc21 | inconclusive: 35.5 µM [inhibitor, single point] | 
CCCCSc1nnc2c(n1)OC(c1ccc(Br)s1)N(C(C)=O)c1ccccc1-2 (stereo not given) | inconclusive: 5.62 µM [inhibitor, full curve] | 
COc1ccccc1C1=Nn2c(nnc2-c2ccccc2C)SC1 | inconclusive: 39.8 µM [inhibitor, single point] | 
CC1CCCC(C)N1C(=O)CSc1nnc(-c2c[nH]c3ccccc23)o1 (stereo not given) | inconclusive: 31.6 µM [inhibitor, partial curve] | 
N#CC/C(N)=N/NC(=O)CCCNc1ncc(C(F)(F)F)cc1Cl | inconclusive: 28.2 µM [inhibitor, partial curve] | 
C1=C(CCNCC2CC2)CCCC1 |  | inactive: 0.17%
Cc1nn2c(=O)cc(COC(=O)Cc3ccccc3)nc2s1 | inconclusive: 25.1 µM [inhibitor, partial curve] | 
Nc1c(C(=O)Nc2ccc(OC(F)(F)F)cc2)sc2nc(-c3ccncc3)ccc12 | inconclusive: 28.2 µM [inhibitor, partial curve] | 
O=C(Nc1ccc(S(=O)(=O)N2CCOCC2)cc1)C1COc2ccccc2O1 (stereo not given) | inconclusive: 31.6 µM [inhibitor, partial curve] | 
CCOc1ccccc1-c1noc(CSc2nnc(-c3ccccc3)n2-c2ccc(F)cc2)n1 |  | inactive: 42.6%
Cn1nnnc1SCCCNCc1cc(Cl)ccc1OCc1ccc(F)cc1 |  | inactive: 1.4%

SMILES | Potency | activity change, negative = displacement
COC(=O)c1[nH]c2cccc(OC)c2c1NC(=O)CCN1CCN(c2ccccc2F)CC1 |  | inactive: -0.249%
COc1cccc(-c2nc(CS(=O)CC(=O)NCc3ccccc3)c(C)o2)c1 (stereo not given) | inconclusive: 35.5 µM [inhibitor, partial curve] | 
CCCCN(CC)CCCNC(=O)c1cc2c(=O)[nH]c3ccccc3c2n1C | inconclusive: 31.6 µM [inhibitor, single point] | 
COc1ccc(NC(=O)CCCSc2nc(-c3ccco3)cc(C(F)(F)F)n2)cc1OC | inconclusive: 39.8 µM [inhibitor, partial curve] | 
O=c1[nH]nnc2sc3c(c12)CCCC3 | inconclusive: 50.1 µM [inhibitor, single point] | 
COc1ccc(O)c(/C=c2/sc3nc4cc(C)c(C)cc4n3c2=O)c1 | inconclusive: 39.8 µM [inhibitor, partial curve] | 
O=C(O)CCC(=O)NC1CCCCCCC1 | inconclusive: 35.5 µM [inhibitor, single point] | 
c1ccc(C(c2ccccc2)c2nc(-c3cccnc3)no2)cc1 | inconclusive: 28.2 µM [inhibitor, partial curve] | 
O=C(Nc1ccc(S(=O)(=O)NCCc2ccccc2)cc1)c1ccc(Br)o1 | inconclusive: 15.8 µM [inhibitor, partial curve] | 
CC1CCN(S(=O)(=O)c2ccc(C(=O)Nc3nnc(-c4ccccn4)o3)cc2)CC1 | inconclusive: 28.2 µM [inhibitor, single point] | 
COC(=O)c1c(N)sc2c1CCN(c1ncc(C(F)(F)F)cc1Cl)C2 | inconclusive: 56.2 µM [inhibitor, single point] | 
COc1ccc(CC(=O)N2CCc3cc(OC)c(OC)cc3C2COc2cc(C)cc(C)c2)cc1OC (stereo not given) |  | inactive: 5.95%
CCC1CCCCN1C(=O)CCC(=O)Nc1nnc(C(F)(F)F)s1 (stereo not given) | inconclusive: 31.6 µM [inhibitor, partial curve] | 
CCCCSc1nc2sc3c(c2c(=O)n1-c1ccc(OC)cc1)CCN(C)C3 | inconclusive: 39.8 µM [inhibitor, single point] | 
Cc1cccc(NC(=O)CSc2ccc(-c3ccccn3)nn2)c1 | inconclusive: 31.6 µM [inhibitor, partial curve] | 
Cc1ccc(/C=C/C(=O)OCC(=O)Nc2cccc(S(=O)(=O)N(C)C)c2)o1 | inconclusive: 35.5 µM [inhibitor, single point] | 
CCn1cc(C(=O)NCc2ccco2)c(=O)c2cc(S(=O)(=O)N3CCc4ccccc4C3)ccc21 | inconclusive: 14.1 µM [inhibitor, partial curve, poor fit] | 
CN(C)c1ccc(C(=S)N2CCCCC2)cc1Br | inconclusive: 17.8 µM [inhibitor, partial curve] | 
O=c1ccc2c([nH]1)CCCCCCCCCC2 | inconclusive: 14.1 µM [inhibitor, partial curve] | 
Cc1c(C(=O)OCC(=O)NC(C)c2ccccc2)oc2ccccc12 (stereo not given) | inconclusive: 3.98 µM [inhibitor, full curve] | 
c1cncc(-c2nc(-c3cccs3)cs2)c1 | inconclusive: 39.8 µM [inhibitor, partial curve] | 
